Test results published in PubChem BioAssay (NCI).
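How tested: cells in 96-well plates exposed to compound for 48 hours at five concentrations. Here, GI50 denotes the concentration required for 50% inhibition of growth. TGI is the concentration that stops growth completely.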

test system: NCI-H322M lung; assay: NCI anticancer screen, dose series, 48 h

Compound | TGI [µM] | GI50 [µM]
CO/C(=N\N=Cc1ccccc1)c1ccncc1 | > 100 | –
Nc1ccc(C(=O)NN2C(=O)[C@H](Cl)C2c2ccc(Cl)cc2)cc1 (some centres undefined) | 5.21 | –
O=C(O)C1=CN=C(C(=O)O)NN1 | > 100 | –
COC(=O)/C1=C/c2c([nH]c3ccccc23)/C(C(=O)OC)=C\c2c1[nH]c1ccccc21 | > 50 | –
COc1ccc2nc3ccccc3c(NCc3ccc(Cl)cc3)c2c1 | 5.7 | 2.18
c1ccc2c3ccn4ccc5c6ccccc6[nH]c5c4c-3nc2c1 | 2.25 | –
Cc1nc2c(o1)C(=O)c1ccccc1C2=Nc1ccccc1 | 29.8 | –
COc1cccc2c(Nc3ccc(S(=O)(=O)N=C(N)N)cc3)c3ccc([N+](=O)[O-])cc3nc12 | 66.4 | –
COc1cc([C@@H]2C3C(=O)c4ccccc4C3[C@@H](c3cc(OC)c(OC)c(OC)c3)C23Cc2ccccc2C3=O)cc(OC)c1OC (some centres undefined) | > 100 | –
CC1(O)CCC(C(C)(C)O)CC1 (centres undefined) | > 100 | –
O=c1[nH]c2cc(F)c(F)cc2nc1Cc1ccccc1 | > 100 | –
CCOC(=O)c1cn2c(n1)sc1cc(C)c(C)cc12 | 37.7 | –
OCCCNCc1ccncc1 | > 100 | –
CCOC(=O)C(NC(=O)CC)(Nc1ccccc1OC)C(F)(F)F (centres undefined) | > 100 | –
CC1(C)NC(C)(C)/C(=N\O)C(=NO)/C1=N/O | > 100 | –
COc1ccc(OC)c2c1C(=O)C(=O)C(Cl)=C2O | > 100 | –
CCOc1ccc2nc(NC(=O)C(=O)C(C#N)CC(C)(C)C=O)sc2c1 (centres undefined) | > 100 | –
ClC1=C(Cl)C(Cl)(Cl)SS1 | > 10 | –
CC(=O)OCCOCn1c2c(c(=O)[nH]c1=O)CCC2 | > 100 | –
CCOC(=O)c1nnn(-c2no[n+]([O-])c2-c2ccc(OC)cc2)c1COc1cccc2cccnc12 | 23.8 | 11.4
CC1=C2C(=O)c3ccccc3C(=O)[C@H]2C[C@@H](N2CCCC2=O)O1 | > 100 | –
CN/N=C(\C)c1c(O)cc(C)oc1=O | > 100 | –

Compound | TGI [µM] | GI50 [µM]
Cc1cc(Nc2ccc3c(c2)OCO3)c2cc3c(cc2n1)OCO3 | 47.5 | 5.78
Cc1ccccc1N(CC(=O)O)S(=O)(=O)c1ccccc1 | > 100 | –
COc1ccc(Nc2nc3c(N)cc(C(F)(F)F)cc3nc2-c2ccccc2)cc1OC | > 100 | –
O=C(CCc1ccc(O)c(O)c1)NCCc1cc(O)cc(OCc2ccccc2)c1 | > 100 | –
O=C(c1cccs1)N(C(=S)N1CCN(c2ccccc2)CC1)C1CCCCC1 | > 100 | –
O=C(N/N=C/c1c(Cl)cccc1Cl)c1cccnc1Nc1cccc(C(F)(F)F)c1 | > 100 | 3.82
CC(=O)N(O)CCCCCNC(=O)CCC(=O)N(O)CCCCCNC(=O)CCC(=O)N(O)CCCCCN | > 100 | –
CCOC(=O)/C(=C\NCc1ccc2c(c1)OCO2)c1nc2ccccc2[nH]1 | > 100 | –
C[CH2][Pb]([CH2]C)([CH2]C)[O]C(=O)COc1ccccc1 | 6.32 | 1.98
O=C(OCCOC(=O)c1ccc2c(c1)C1(SCCS1)c1ccccc1-2)c1ccc2c(c1)C1(SCCS1)c1ccccc1-2 | > 100 | –
COC(=O)C1=C(C(=O)OC)C2(CCCCCC2=O)OC1=O (centres undefined) | > 100 | –
O=C1N[C@@H]2[C@@H](O)[C@@H](O)[C@H](O)C[C@H]2c2cc3c(c(O)c21)OCO3 | 0.561 | 0.079
Nn1c2c(c3ccccc3c1=O)C(=O)c1ccccc1-2 | > 50 | > 50
N#Cc1c(Br)n(C2OC(CO)C(O)C2O)c2ncn3ccnc3c12 (centres undefined) | > 100 | > 100
O=c1ccc2nc(C(F)(F)F)nn(-c3ccccc3)c-2c1 | 33.6 | 18.5
O=c1cc(NCC(O)CN2CCOCC2)n(Cc2ccccc2)c(=O)n1Cc1ccccc1 (centres undefined) | > 100 | > 100
Nc1ccc(S(=O)(=O)Nc2cnc3ccccc3n2)cc1 | > 100 | –
[N-]=[N+]=Nc1c(N2CCOCC2)c(Cl)nc2ccccc12 | > 100 | –
COC(=O)C(Cc1ccc2c(c1)CCCC2)Cc1cc2c(cc1C(O)OC)CCC2 (centres undefined) | > 100 | –
Cc1ccc(Cc2nc(=S)[nH][nH]2)cc1 | > 100 | –
Cc1cc(C2CC(O)C(CO)O2)c(Cl)cc1Cl (centres undefined) | > 100 | > 100
